Reference: the supplement of paper PMC10126150
Values marked as one replicate rest on one cluster of the flow cell; about a third of the high ones do not repeat.

These sequences were tested on ATP (assay: switch fluorescence ratio, 500 uM ATP over buffer (Cy3 cluster intensity, sum of 5 cycles each) (fold (ratio)); higher = stronger signal-on switching upon ATP binding; sequences stand for … in TCGTCGGCAGCGTCAGATGTGTATAAGAGACAGTTTTTTTTTTTTTTTTTTTTTTTTT…TC). Details: aptamer strand: ATP DNA aptamer (quencher-CACCTGGGGGAGTATTGCGGAGGAAGG + anchor), 100 nM annealed; ATP concentration: 500 uM; one replicate.
Method in brief: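 Switching-strand clusters labelled with Cy3 on a modified Illumina MiSeq flow-cell were annealed to 100 nM quencher-labelled ATP aptamer, imaged in selection buffer, and re-imaged after 15 min with 500 uM ATP at 22 °C. This was done over five cycles with NaOH stripping and re-annealing in between. The fluorescence ratio is summed target-cycle over summed buffer-cycle Cy3 intensity per cluster, averaged per switch-domain sequence, excluding clusters outside 100-1000 RFU.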
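Note: ATP exposure 15 min at 22 °C before imaging.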

Sequence | switch fluorescence ratio
TGTGGTCACA | 0.975
TGTGGTGTG | 1
TGTGTCAAAA | 1.02
TGTGTCACCA | 1.41
TGTGTCATAG | 0.978
TGTGTCGGCC | 0.966
TGTGTCTATT | 0.97
TGTGTGCACT | 1.01
TGTGTGTCGG | 0.941
TGTGTTGTTC | 1.27
TGTTAAAAGC | 0.991
TGTTAAGTAT | 0.991
TGTTAGAAGT | 0.994
TGTTAGACCT | 1.27
TGTTAGTATC | 0.985
TGTTAGTCAT | 0.981
TGTTATCACG | 1.07
TGTTATCTTG | 0.964
TGTTATGTTG | 0.961
TGTTCAATGC | 1.24
TGTTCACATG | 1.01
TGTTCAGAGC | 0.978
TGTTCCCGGG | 1.01
TGTTCCGTTG | 1.1
TGTTCCTTCT | 1.03
TGTTCTTCAG | 1.02

Sequence | switch fluorescence ratio
TGTTCTTTGC | 1.02
TGTTGACGAA | 1.01
TGTTGATGGG | 0.992
TGTTGCGACA | 1
TGTTGCGATG | 0.998
TGTTGGGTA | 0.965
TGTTGTGG | 0.98
TGTTGTGGCT | 1.01
TGTTGTTGCT | 0.955
TGTTTAGGCC | 0.991
TGTTTAGTAG | 1.02
TGTTTATTT | 0.999
TGTTTCTTTG | 0.997
TGTTTGAACT | 0.973
TGTTTGTGGG | 0.993
TGTTTTAGCG | 0.995
TGTTTTATAG | 0.962
TGTTTTGCTA | 1.03
TTAAAAATTA | 1.02
TTAAAACAC | 1.05
TTAAAATCGT | 1.02
TTAAAATGCG | 1.06
TTAAAATTCC | 1.16
TTAAAGCAAT | 2.39
TTAAATGCAT | 1
TTAAATTTA | 1.04

Sequence | switch fluorescence ratio
TTAACAGCAT | 1.03
TTAACATG | 1.02
TTAACATGAG | 1.03
TTAACCGCAC | 2.55
TTAACCTTTA | 1.14
TTAACGATCT | 1.02
TTAACGGCAC | 1.85
TTAACGTACT | 1.76
TTAACTACGC | 1.88
TTAACTCGCC | 1.03
TTAACTTATT | 0.931
TTAAGACAAT | 1
TTAAGACCAA | 0.996
TTAAGACCTT | 0.959
TTAAGAG | 1.02
TTAAGATGTC | 1
TTAAGCAGTA | 1.01
TTAAGCCGTA | 1.02
TTAAGCCTTC | 1.3
TTAAGCGAGT | 0.96
TTAAGGCATA | 1.02
TTAAGGGTAC | 1.06
TTAAGTTAGA | 1.01
TTAAGTTATC | 1.03
TTAATAATAG | 0.987
TTAATACAA | 0.978

Sequence | switch fluorescence ratio
TTAATATATG | 1.02
TTAATCCAC | 1.08
TTAATCTCAG | 0.985
TTAATCTTAG | 1.05
TTAATGGCAC | 1.07
TTAATTG | 0.972
TTAATTGCAT | 1.01
TTAATTGTGA | 0.955
TTAATTTCCA | 1.08
TTAATTTCGA | 0.965
TTAATTTTCA | 1.02
TTACAAGCGC | 0.979
TTACAAGTT | 0.993
TTACACCGCA | 1.67
TTACACGACA | 1.26
TTACCCGGTG | 1.97
TTACCGAGAC | 3.71
TTACCGAGGA | 1.03
TTACCGTTT | 1.07
TTACCTATAT | 1.04
TTACCTATTA | 0.97
TTACCTTGGT | 1.07
TTACGGCCGT | 1
TTACGGGCT | 0.989
TTACGTTACC | 1.66
TTACGTTGTG | 1.02

Sequence | switch fluorescence ratio
TTACTAGGGA | 1.03
TTACTCCGAG | 1.78
TTACTCGTGA | 1.02
TTACTCTTAC | 1.13
TTACTCTTTT | 1.03
TTACTGACTT | 1.11
TTACTGAGTT | 1.01
TTAGAAGA | 1.03
TTAGAAGCC | 0.95
TTAGAAGCGC | 0.916
TTAGAATCGT | 1.03
TTAGAATGAA | 0.976
TTAGACCCTA | 1.05
TTAGATAGGC | 0.931
TTAGATTAAT | 1.16
TTAGATTTCG | 1.07
TTAGATTTGG | 1.01
TTAGCACGGA | 1.05
TTAGCACT | 1.09
TTAGCATTAA | 1.9
TTAGCCATTA | 1.03
TTAGCCCTGT | 0.989
TTAGCCTAGG | 0.984
TTAGCGAAAA | 1.01
TTAGCGGTTG | 1.05
TTAGCTAAAT | 0.982

Sequence | switch fluorescence ratio
TTAGGAAATC | 0.986
TTAGGACCTG | 1.02
TTAGGCCAGT | 1.14
TTAGGCTCGA | 0.97
TTAGGGCTGG | 0.986
TTAGGGGTG | 1.01
TTAGGTAGTA | 0.952
TTAGGTTCGC | 1.07
TTAGTATCAC | 1.03
TTAGTATTAT | 0.974
TTAGTCTGCT | 0.949
TTAGTGGTAT | 0.979
TTAGTGTCGG | 1.02
TTAGTGTGTA | 1.02
TTAGTGTTA | 1
TTAGTTCCGG | 1.03
TTAGTTGAAA | 0.985
TTAGTTGTAC | 1.06
TTATAAATAG | 0.981
TTATAACGT | 0.997
TTATAACTGA | 0.963
TTATAAGACG | 0.961
TTATACGGGC | 1.1
TTATACTCAA | 1.29
TTATACTCCT | 1.29
TTATAGGTGT | 1.11

Sequence | switch fluorescence ratio
TTATAGTAGA | 1.03
TTATAGTCT | 0.961
TTATATGACT | 1.04
TTATATGCCA | 0.978
TTATATTCGG | 0.973
TTATCAGCGT | 0.977
TTATCATTAA | 0.985
TTATCCCCTA | 0.982
TTATCCCCTT | 0.996
TTATCCCTT | 1.05
TTATCCTACA | 1.03
TTATCCTCCG | 3.33
TTATCGGGA | 1
TTATCGTCGT | 0.99
TTATGAATAA | 1.03
TTATGAGCCC | 0.974
TTATGCACAT | 1.06
TTATGCATT | 1
TTATGCCAGT | 1.01
TTATGCGATC | 1.09
TTATGCGGGC | 1.01
TTATGCTCTA | 0.988
TTATGCTTGA | 1.01
TTATGGCAGC | 1.02
TTATGGCCGC | 1.03
TTATGGTAGG | 1.01

Sequence | switch fluorescence ratio
TTATGGTTGT | 1.07
TTATGTCGCC | 0.93
TTATGTTCGG | 0.935
TTATGTTGGC | 0.965
TTATTATGCA | 1.02
TTATTCATGA | 0.979
TTATTCTACT | 1.02
TTATTCTTTG | 0.987
TTATTGAGTT | 1.01
TTATTGTA | 0.99
TTATTTGCC | 1.04
TTATTTTAAT | 0.965
TTATTTTTCC | 0.975
TTCAACCCCG | 1.02
TTCAACCTGG | 1.05
TTCAAGAGCC | 1.04
TTCAATAGAC | 1.1
TTCAATCAGG | 1.38
TTCAATGCTG | 1.18
